Values after ≈ are worked out from the molar mass of the structure shown. Marks after values point to notes of the source that are not given here.
Legend:
VRE 700221 = experiment: MIC susceptibility assay (broth microdilution); details: 16 h; for MIC VRE 700221: planktonic growth inhibition, 37° C.
MRSE 35984 = experiment: MIC susceptibility assay (broth microdilution); details: 16 h; for MIC: Staphylococcus epidermidis, MRSE, read-out: MIC MRSE 35984
MRSA-1707 = experiment: MIC susceptibility assay (broth microdilution); details: 16 h
MRSA-44 = experiment: MIC susceptibility assay (broth microdilution); details: 16 h
[1] = system: MRSA, MRSE and VRE strains; experiment: MIC assays, summary statements over several Gram-positive strains
[2] = planktonic growth inhibition, 37° C.

With `Oc1cccc2nc3ccccc3nc12` [48 (1-OHP), 1-Hydroxyphenaizne, reference compound] the “MIC VRE 700221” value (VRE 700221) was >50 µM, the “MIC MRSE 35984” value (MRSE 35984; [2]) was 37.5^a μM and the “MIC MRSA-1707” value (MRSA-1707; [2]) was 50 µM (≈ 9.81 µg/mL). For the same molecule, the “MIC MRSA-44” value (MRSA-44; [2]) was 50 µM (≈ 9.81 µg/mL).

`Cc1c(Br)ccc2nc3c(O)cc(Cl)cc3nc12` [Compound 21, 7-Bromo-3-chloro-6-methylphenazin-1-ol] was tested, and the MIC ([1]; Staphylococcus epidermidis, MRSA|MRSE|VRE, read-out: MIC against Staphylococcus strains) was 0.3 to 0.78 µM (≈ 0.0971 to 0.252 µg/mL), the “MIC VRE 700221” value (VRE 700221) was 1.17^a μM and the MIC (MRSE 35984) was 0.78 µM (≈ 0.252 µg/mL). The MIC (MRSA-44; Staphylococcus aureus, MRSA, read-out: MIC MRSA-44) was 0.3 µM (≈ 0.0971 µg/mL).

In the case of `Oc1cc(Cl)cc2nc3ccc(Br)cc3nc12` [Compound 26, 8-Bromo-3-chlorophenazin-1-ol], the MIC (VRE 700221; Enterococcus, VRE, read-out: MIC VRE 700221) is reported as > 50 µM and the MIC (MRSE 35984) is reported as > 50 µM.

`Oc1cc(Cl)cc2nc3ccc(I)cc3nc12` [Compound 27, 3-Chloro-8-iodophenazin-1-ol] gave an MIC (MRSA-1707; Staphylococcus aureus, MRSA, read-out: MIC MRSA-1707, planktonic growth inhibition, 16 h, 37° C.) of 0.78 µM (≈ 0.278 µg/mL).

With `Oc1c(Br)c(Cl)c(Br)c2nc3c(Br)cccc3nc12` [Compound 35, 2,4,6-Tribromo-3-chlorophenazin-1-ol] the “MICs against all Gram-positive strains in the panel” value ([1]; result in words) was “sub-micromolar” and the MIC (MRSE 35984) was 0.1 µM (≈ 0.0467 µg/mL).

Work on `Oc1c(Br)c(Cl)c(Br)c2nc3ccc(Br)cc3nc12` [Compound 36, 2,4,8-Tribromo-3-chlorophenazin-1-ol] yielded an MIC (MRSE 35984) of 0.1 µM (≈ 0.0467 µg/mL).
